Read counts are not given, so values of variants with three or more changes are uncertain.
B1: LINE1-mini (parent)
chain: GGCAGAGCUCAACACAGCGUGGCAAAGUGGCUGUGGCUAGACUGCC

Variants of: B1
Assay: self-cleavage, relative activity (ratio to wild type); higher = more cleavage; in vitro, sequencing; the parent is a self-cleaving ribozyme

Variant	self-cleavage
GUCAGAGCUCAACAGAGGGUGGCAAAGUGGCUGUGGCUAGACUGCC [G2U C15G C18G]	0.03
GUCAGAGCUCAACAGAGCGUGGCAAAGUGGCUGUGGUUAGACUGUC [G2U C15G C37U C45U]	0.01
GUCAGAGCUCAACAGACCGUGGCAUAGUGGCUGUGGCUAGACUGCC [G2U C15G G17C A25U]	0.02
GUCAGAGCUCAACAGAGCGUGACAAAGUGGCUGUGGCUUGACCGCC [G2U C15G G22A A39U U43C]	0
GUCAGAGCUCAACAGAGCGUGGCAAAGUGGCUCUGGCUAGACUGCC [G2U C15G G33C]	0.02
GUCAGAGCUCAACAUCGCGUGGCAAAGUGGCUGUGGCUAGACUGGC [G2U C15U A16C C45G]	0.01
GUCAGAGCUCAACAUAGCGUGGGAAAGUGGCUGUCGAUAGACUGCC [G2U C15U C23G G35C C37A]	0.02
GUCAGAGCUCAACAUAGCGUGGCAAAGUGGCUGUGGCUAGACUGAC [G2U C15U C45A]	0.14
GUCAGAGCUCAACAUAUCGUGGCAAAGUGGCUUUGGCUAGACUGCC [G2U C15U G17U G33U]	0.02
GUCAGAGCUCAACAUAGCGUGGCAAAGAUGCUGUGGCAAGACUGCU [G2U C15U U28A G29U U38A C46U]	0.11
GUCAGAGCUCAACACAGAGUGGCGAAGUGGCUGUGUCUAGACUGUC [G2U C18A A24G G36U C45U]	0.02
GUCAGAGCUCAACACAGAUCGGCAAAGUGGCUGUGGCUAGACUGCC [G2U C18A G19U U20C]	0.04
GUCAGAGCUCAACACAGAGUUGCAAAGUGGCUGUGGCUAGACUGCC [G2U C18A G21U]	0
GUCAGAGCUCAACACAGAGUGGCAAAGUGGCUGUGGCUAGACGGGC [G2U C18A U43G C45G]	0.01
GUCAGAGCUCAACACAGGGUGGCGAAGUGGCUGUGGCUAGACUGCC [G2U C18G A24G]	0
GUCAGAGCUCAACACAGGGUCGCAAAGUGGCUGUGGUUAGAAUGCC [G2U C18G G21C C37U C42A]	0.03
GUCAGAGCUCAACACAGGGUGUCAAAGUGGCUGUGGCUAGACUGCC [G2U C18G G22U]	0.03
GUCAGAGCUCAACACAGGGUGGCAAAGUGGCUCUGGCUUGACUGCA [G2U C18G G33C A39U C46A]	0.01
GUCAGAGCUCAACACAGGGAGGCAAAGUCGCUGUGGCUAGACUGCC [G2U C18G U20A G29C]	0.03

Variant	self-cleavage
GUCAGAGCUCAACACAGGGUGGCAAAGAGGCUGUGGAUAGAGUGCC [G2U C18G U28A C37A C42G]	0.01
GUCAGAGCUCAACACAGUGUGGUAAAGUGGCUGUGGCUAGACUGCU [G2U C18U C23U C46U]	0.04
GUCAGAGCUCAACACAGUGUGCCCAGGUGGCUGUGGCUAGACUUCC [G2U C18U G22C A24C A26G G44U]	0.03
GUCAGAGCUCAACACAGCGUGGAAAAGUGCCUGUGGCUCGACUGCC [G2U C23A G30C A39C]	0.03
GUCAGAGCUCAACACAGCGUGGGAAUGUGGCUGUGGCUAGACUGCU [G2U C23G A26U C46U]	0.01
GUCAGAGCUCAACACAGCGUGGGAAAGUGGCUGUGGCUGGACUGCC [G2U C23G A39G]	0.02
GUCAGAGCUCAACACAGCGUGGGAAAGUGGCUGUGACUAGACUGCC [G2U C23G G36A]	0.02
GUCAGAGCUCAACACAGCGUGGGAAAGUGGCUGUGGCUAGACCGCC [G2U C23G U43C]	0.05
GUCAGAGCUCAACACAGCGUGGUGAUGUGGCUGUGGCUAGUCUAAC [G2U C23U A24G A26U A41U G44A C45A]	0.01
GUCAGAGCUCAACACAGCGUGGUAAAGAGGCUGUGGAUAGAGUGCC [G2U C23U U28A C37A C42G]	0.03
GUCAGAGCUCAACACAGCGUGGCAAAGUGGAUGUGGCUAGAGUGCC [G2U C31A C42G]	0.02
GUCAGAGCUCAACACAGCGUGGCAAAGUGGAUGUGCCUAGAUUGCC [G2U C31A G36C C42U]	0.02
GUCAGAGCUCAACACAGCGUGGCAAAGUGGAUGAGGCUAGACUGCC [G2U C31A U34A]	0.03
GUCAAGGCUCAACACAGCGUGGCAAAGUGGCUGUGGCUAGACUGGC [G2U G5A A6G C45G]	0.06
GUCAAGGCGCAACACAUCGUGGCAAAGUGCCUGUGGCUAGACUGCC [G2U G5A A6G U9G G17U G30C]	0.03
GUCAAAGUUCAACACAGCGUGGCAAAGUGGCUGUGGCUAGGCUGCC [G2U G5A C8U A41G]	0.06
GUCAAAGCUCAACACAGCGUGGUAAAGUGGAUGUGGCUAGACUGCC [G2U G5A C23U C31A]	0.03
GUCAAAGCUCAACACAGCGUUGUAAAGUGGCUGUCGCUACACUGCC [G2U G5A G21U C23U G35C G40C]	0.08
GUCAAAGCUCAACACAGCGUGGCAAAUUGGCUGUGGCUUGACUGCG [G2U G5A G27U A39U C46G]	0.04

Variant	self-cleavage
GUCAAAGCUCAACACAGCGUGGCAAAUUGGCUGUGGCAAGACUGCC [G2U G5A G27U U38A]	0.09
GUCAAAGCUCAACACAGCGUGGCAAAGUGACUAUGGCUAGACUGCC [G2U G5A G30A G33A]	0.02
GUCACGGCUUAACACAGCGUGGCAAAAUGGCUGUGACUAGACUGCC [G2U G5C A6G C10U G27A G36A]	0.02
GUCACAGCUCAACACUGAGUGGCAAAGUGGCUCUGGCUAGACUGCC [G2U G5C A16U C18A G33C]	0.01
GUCACAGCUCAACACAGCGUGGGAAAGUGGUUGUGGCUAGACUGCC [G2U G5C C23G C31U]	0.01
GUCACAACUUAAUCCAGCGUGGCAAAGUGGCGGUGACUAGAGUGCC [G2U G5C G7A C10U C13U A14C U32G G36A C42G]	0.05
GUCACAGCUCAACACAGCGUGGCAAAGUGGCUGUGGCUAGACUCAC [G2U G5C G44C C45A]	0.01
GUCACAGCUCAACACAGCGUGGCAAAGAGGCUGUGGCUAGACUGCC [G2U G5C U28A]	0.02
GUCAUAGCUACACACAGCGUGGAAAAGUGGCUGUGGCUAGACUGCC [G2U G5U C10A A11C C23A]	0.01
GUCAUAGCUCAACAGAGCGUGGCAAAGUGGCUGUGGAUAGACUGCC [G2U G5U C15G C37A]	0.01
GUCAUAGCUCAACACAGCGUGGCAAAGUGGCUGUGGCUAGAGUGCC [G2U G5U C42G]	0.03
GUCAUAGCUCAACACAGCGUGGCAAAGUGGCUGUGGCUAGACUGCU [G2U G5U C46U]	0.03
GUCAUAACUCGACAUAGCGUGGCAAAGUGGCUGUGGCUAAACUGUC [G2U G5U G7A A11G C15U G40A C45U]	0.02
GUCAUAGCUCAACACACCGUCGCAAAGUGGCUGUGGAUAGACUGCC [G2U G5U G17C G21C C37A]	0.04
GUCAGAACUCACCACAGCGUGGCAAAGUGGCUGUGGCUAGACUGCC [G2U G7A A12C]	0.06
GUCAGAACUCAAGACAGCGUGGCAAAGUGGAUGUGGCUAGACUGCC [G2U G7A C13G C31A]	0.01
GUCAGAACUCAACACAGCGUGGCAAAUUGGGUGUGGCUAGACUGCC [G2U G7A G27U C31G]	0.02
GUCAGAACUCAACACAGCGUGGCAAAGUGGCUGUGACUAGACUGCC [G2U G7A G36A]	0.11

Source: the RNAGym collection of RNA variant scans (doi:10.7554/elife.90254)
